Experimental data taken from patent publication US20050095240A1, “NaCT as a target for lifespan expansion and weight reduction” (Medical College of Georgia Research, priority 2002, published 2005).

What follows are compounds tested against drIndy (Drosophila melanogaster, UniProt Q9VVT2). Conditions: not given.
Chain of drIndy (Q9VVT2 19-590): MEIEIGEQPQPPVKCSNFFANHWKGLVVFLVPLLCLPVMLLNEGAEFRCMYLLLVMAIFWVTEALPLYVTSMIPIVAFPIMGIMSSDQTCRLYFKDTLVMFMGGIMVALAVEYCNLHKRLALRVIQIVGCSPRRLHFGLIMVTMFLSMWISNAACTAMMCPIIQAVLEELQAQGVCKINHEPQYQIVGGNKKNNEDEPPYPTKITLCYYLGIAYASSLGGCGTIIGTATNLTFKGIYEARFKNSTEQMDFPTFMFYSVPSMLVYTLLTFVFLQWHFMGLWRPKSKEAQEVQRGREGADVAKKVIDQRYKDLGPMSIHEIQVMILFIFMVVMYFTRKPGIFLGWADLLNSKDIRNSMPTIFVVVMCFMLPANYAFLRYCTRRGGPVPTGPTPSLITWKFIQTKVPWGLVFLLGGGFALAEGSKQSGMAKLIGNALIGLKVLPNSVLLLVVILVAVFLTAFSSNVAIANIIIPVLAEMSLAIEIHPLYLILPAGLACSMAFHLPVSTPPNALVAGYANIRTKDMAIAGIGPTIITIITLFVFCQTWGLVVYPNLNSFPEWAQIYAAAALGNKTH

In the case of [Cl-].[K+] [KCl], the “Fold Increase of succinate uptake (drIndy vs vector)” value was 15.9 fold.

Same assay, conditions: succinate 40 nM; drIndy cDNA-transfected HRPE cells; indicated salt 140 mM or mannitol 280 mM; pH 7.5

In order of rising “Succinate uptake, drIndy” value:
1. O=C([O-])[C@H](O)[C@@H](O)[C@H](O)[C@H](O)CO.[Na+] [Sodium gluconate]  76.6 ± 2.6 fmol/10^6 cells per min
2. OC[C@@H](O)[C@@H](O)[C@H](O)[C@H](O)CO [Mannitol]  83.3 ± 7.1 fmol/10^6 cells per min
3. CNC[C@H](O)[C@@H](O)[C@H](O)[C@H](O)CO.Cl [NMDG chloride, N-methyl-D-glucamine chloride]  84.7 ± 10.0 fmol/10^6 cells per min
4. [Cl-].[Na+] [NaCl]  118.0 ± 7.8 fmol/10^6 cells per min
5. [Cl-].[Li+] [LiCl]  122.3 ± 4.3 fmol/10^6 cells per min
